{"source": "PubChem BioAssay AID662", "about": "(National Center for Advancing Translational Sciences (NCATS), 2007)", "note": "The campaign covered roughly 71,000 compounds. About 1,800 (2.5%) were called active. The inconclusive results got no clear call from the source; some entries with a clear call stand among them for comparison. The call rests on the fitted dose curve; in most records, active means well fitted activation curve with a large enough effect in the signal ratio, with a control signal flat (not every such curve was filed as active); inconclusive means small, poorly fitted or top-dose-only effect, or effect the other way, or a change in a side signal; inactive means flat fitted curve, though single readings scatter; the % refers to the signal ratio. Potencies of inconclusive entries are doubtful fits and often do not repeat. Potency means the concentration at half of the fitted maximal effect; tags describe the fitted curve by direction and shape.", "data": [{"test": "Cell signaling CRE-BLA (Fsk stim); on activity change, negative = inhibition: % of control where 0% means no effect", "settings": "CHO CRE-bla reporter (cAMP response element driving beta-lactamase), forskolin EC10, beta-lactamase ratio; activity change, negative = inhibition: at 38.2 µM (top of the series) unless noted", "procedure,_shortened": "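The 460nm/530nm emission ratio after CCF4 loading defined %Activity, from which AC50 values were obtained. CRE-bla CHO cells received compound dilution series together with an EC10 level of NKH 477 for 3 hours at 37 degrees Celsius.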", "values": [{"molecule": "COc1ccccc1-c1nc(N(C)Cc2ccco2)c2ccccc2n1", "activity change, negative = inhibition": "inactive: 3.35%"}, {"molecule": "CCOc1nc(C)ccc1-c1noc(-c2ccncc2)n1", "Potency": "inconclusive: 6.31 µM [rising, partial curve]"}, {"molecule": "CCCC(c1nnnn1Cc1ccc(OC)cc1)N1CCC(C(N)=O)CC1", "note": "(stereo not given)", "activity change, negative = inhibition": "inconclusive: -11.9%"}, {"molecule": "COCC(=O)NC(C)c1nc2ccccc2[nH]1", "note": "(stereo not given)", "activity change, negative = inhibition": "inconclusive: 0.568%"}, {"molecule": "CCOC(=O)c1c2n(c3ccc(O)cc13)CCC2", "Potency": "inconclusive: 15.8 µM [rising, partial curve]"}, {"molecule": "COc1ccc(-c2nn(C)c(=O)c3ccccc23)cc1NC(=O)Cn1nc(C)c2ccccc2c1=O", "Potency": "inconclusive: 5.01 µM [rising, partial curve]"}, {"molecule": "CCOCc1nc(C)c(Cl)c(NS(=O)(=O)c2ccc(N)cc2)n1", "Potency": "inconclusive: 0.631 µM [falling, partial curve]"}, {"molecule": "C=CCN=C(NC#N)SCc1ccccc1Cl", "Potency": "inconclusive: 25.1 µM [falling, single point]"}, {"molecule": "CCOc1cccc2cc(C(=O)Nc3cc(C)on3)c(=O)oc12", "activity change, negative = inhibition": "inactive: 5.92%"}, {"molecule": "Cc1cc(NC(=O)CN2CCN(Cc3ccccc3)CC2)nc2c1c(=O)oc1ccccc12", "activity change, negative = inhibition": "inconclusive: 28.1%"}, {"molecule": "COc1ccc(CNc2ncnc3ccc(-c4ccc(C(=O)N(C)C)cc4)cc23)c(OC)c1", "Potency": "inconclusive: 12.6 µM [rising, partial curve]"}, {"molecule": "CCOC(=O)c1cc(C)sc1N1C(=O)C2C3C=CC(C3)C2C1=O", "note": "(stereo not given)", "activity change, negative = inhibition": "inconclusive: 8.01%"}, {"molecule": "O=C(c1ncc[nH]1)c1ccco1", "activity change, negative = inhibition": "inconclusive: 13.7%"}, {"molecule": "CN(C)c1ncc2nc(-c3ccccc3)c(=O)n(C[C@H]3CCCO3)c2n1", "Potency": "active: 3.98 µM"}, {"molecule": "NS(=O)(=O)c1cc(C(=O)O)c(Cl)c([N+](=O)[O-])c1Cl", "activity change, negative = inhibition": "inconclusive: -13.6% [at 7.6 µM]"}, {"molecule": "COc1ccc(CN(CCN(C)C)Cc2ccccc2)c(OC)c1", "activity change, negative = inhibition": "inactive: 7.78%"}, {"molecule": "c1cc(-c2nc3ccccc3o2)nc(-c2nc3ccccc3o2)c1", "activity change, negative = inhibition": "inactive: 7.19%"}, {"molecule": "Cc1nc(N2CCOCC2)c2cc(-c3ccccc3)sc2n1", "activity change, negative = inhibition": "inconclusive: -1.6%"}, {"molecule": "C=C(CC1([C@@H](NP(=O)(c2ccccc2)c2ccccc2)[C@H]2C[C@@H]2CCN(C(=O)OCC)S(=O)(=O)c2ccc(C)cc2)CC1)c1ccccc1", "activity change, negative = inhibition": "inactive: -10.4%"}, {"molecule": "COc1ccc(OC)c(C(C)NC(C)=O)c1", "note": "(stereo not given)", "Potency": "inconclusive: 0.02 µM [rising, full curve, poor fit]"}, {"molecule": "COc1ccc(S(=O)(=O)Nc2ccccc2C(=O)NC(C)C)cc1OC", "Potency": "inconclusive: 0.02 µM [rising, single point]"}, {"molecule": "CCOC(=O)C1CCN(C(=O)C2CCCCC2)CC1", "activity change, negative = inhibition": "inactive: -1.79%"}, {"molecule": "CCCc1cc(-n2ccnc2)n2c(nc3ccccc32)c1C#N", "activity change, negative = inhibition": "inconclusive: -7.09%"}, {"molecule": "COc1ccc(C(=O)N(Cc2nc(-c3ccc(C)cc3)no2)C2CCCCC2)cc1OC", "Potency": "inconclusive: 0.794 µM [falling, partial curve]"}, {"molecule": "CCOc1cc(C#N)c(NC(=O)c2ccco2)cc1OCC", "Potency": "inconclusive: 3.98 µM [rising, full curve]"}, {"molecule": "Cc1nnc(SCC(=O)NCc2ccc3c(c2)OCO3)[nH]c1=O", "activity change, negative = inhibition": "inactive: -1.52%"}, {"molecule": "Cn1c(N)c(C(=O)COC(=O)CCC(=O)c2cccs2)c(=O)n(C)c1=O", "activity change, negative = inhibition": "inconclusive: 23.9%"}, {"molecule": "Cc1nn2c3ccccc3nc2n(Cc2ccccc2)c1=O", "activity change, negative = inhibition": "inconclusive: 3.43%"}, {"molecule": "O=C(NCCN1CCOCC1)c1csc2c1CCCCC2", "activity change, negative = inhibition": "inconclusive: -10.6%"}, {"molecule": "COC(=O)c1ccccc1NC(=O)CN1CCC(NC(=O)c2ccc(C)cc2)CC1", "activity change, negative = inhibition": "inactive: -1.58%"}, {"molecule": "O=C(O)CCCC(=O)Nc1ccc(C(=O)N2CCCCC2)c(Cl)c1", "activity change, negative = inhibition": "inconclusive: 16.1%"}, {"molecule": "COc1ccc(Br)cc1CNC(=O)C1CCN(S(=O)(=O)N2CCCCC2)CC1", "activity change, negative = inhibition": "inactive: -16.4%"}, {"molecule": "CCc1ccc(CCC(=O)Nc2ccc(C)c(C)c2)o1", "activity change, negative = inhibition": "inconclusive: -3.57%"}, {"molecule": "CCCCCSc1nnc2c(n1)OC(c1cccn1C)N(C(C)=O)c1ccccc1-2", "note": "(stereo not given)", "activity change, negative = inhibition": "inconclusive: -17.8%"}, {"molecule": "CCOC(=O)c1sc(C)c2c1NC1(CCCCC1)NC2=O", "Potency": "inconclusive: 5.01 µM [rising, partial curve]"}, {"molecule": "O=C(c1cc2c(=O)oc3ccccc3c2s1)N1CCN(c2ncccn2)CC1", "activity change, negative = inhibition": "inactive: 11.2%"}, {"molecule": "Cc1ccccc1-c1ccc2ncnc(-n3ccnc3)c2c1", "Potency": "inconclusive: 10 µM [falling, partial curve]"}, {"molecule": "c1ccc(-c2cccc(-c3ccccn3)n2)nc1", "Potency": "inconclusive: 25.1 µM [rising, single point]"}, {"molecule": "Cc1cccn2cc(CNC(=O)CC3CCCC3)nc12", "activity change, negative = inhibition": "inconclusive: -13.5%"}, {"molecule": "N#Cc1cccc(NC(=O)Nc2cccs2)c1", "activity change, negative = inhibition": "inactive: -18.7%"}, {"molecule": "Nc1c(C(=O)OCC2CCCO2)c2nc3ccccc3nc2n1C1CCCC1", "note": "(stereo not given)", "Potency": "active: 2.51 µM"}, {"molecule": "Cn1c(=O)c2nnn(/N=C(\\c3ccccc3)C3CC3)c2n(C)c1=O", "Potency": "inconclusive: 10 µM [rising, partial curve]"}, {"molecule": "O=C(c1noc2c1CCc1ccccc1-2)N1CCCc2ccccc21", "activity change, negative = inhibition": "inactive: -11.4%"}, {"molecule": "O=C(CS(=O)(=O)Cc1ccccc1)N1CCc2ccccc21", "activity change, negative = inhibition": "inconclusive: -13.7%"}, {"molecule": "COc1ccc(N2CCCn3c2nc2c3c(=O)n(CCN3CCOCC3)c(=O)n2C)cc1", "Potency": "inconclusive: 2.51 µM [rising, single point]"}, {"molecule": "C=CCn1c2ccccc2c2nnc(SCN3C(=O)c4ccccc4C3=O)nc21", "Potency": "inconclusive: 0.501 µM [rising, partial curve]"}, {"molecule": "O=c1c(-c2cc(F)cc(F)c2)nc2cnc(N3CCOCC3)nc2n1Cc1cccs1", "Potency": "active: 0.631 µM"}, {"molecule": "CCCCN(C)C(=O)c1c[nH]c2ccc(S(=O)(=O)N3CCOCC3)cc2c1=O", "activity change, negative = inhibition": "inactive: -7.71%"}, {"molecule": "CN(CCCNC(=O)C1CCN(S(=O)(=O)N2CCC3(CC2)OCCO3)CC1)Cc1ccccc1", "activity change, negative = inhibition": "inconclusive: -21.6%"}, {"molecule": "Cc1c(C(=O)OCCOC(C)C)[nH]c2c1C(=O)CC(c1ccco1)C2", "note": "(stereo not given)", "Potency": "active: 0.501 µM"}, {"molecule": "Cc1ccc(NC(=O)OCC(F)(F)C(F)F)cc1NC(=O)OCC(F)(F)C(F)F", "Potency": "inconclusive: 0.0126 µM [falling, full curve, poor fit]"}, {"molecule": "Cc1cc(NC(=O)CSc2nc3ccsc3c(=O)n2Cc2ccccn2)n[nH]1", "activity change, negative = inhibition": "inconclusive: 0.712%"}, {"molecule": "CN(C)c1ccc(NC(=O)Cn2ncn3c(cc4ccccc43)c2=O)cc1", "activity change, negative = inhibition": "inconclusive: 16.8%"}, {"molecule": "CCCCn1c(=O)[nH]c(=O)c2c1nc(CN1C(=O)c3ccccc3S1(=O)=O)n2CCC", "Potency": "active: 10 µM"}, {"molecule": "CCOC(=O)C(NCc1ccccn1)(NC(=O)c1cccnc1)C(F)(F)F", "note": "(stereo not given)", "activity change, negative = inhibition": "inconclusive: -7.91%"}, {"molecule": "Cc1ccccc1Cn1nnc(C(=O)Nc2cccc(C)c2C)c1N", "activity change, negative = inhibition": "inconclusive: -25.8%"}, {"molecule": "O=C(CN1C2CCCC1CC(NC(=O)c1ccco1)C2)Nc1ccccc1C(F)(F)F", "note": "(stereo not given)", "activity change, negative = inhibition": "inconclusive: -0.494%"}, {"molecule": "O=C(Nc1nc2ccccc2n1CCN1CCCC1)C1CCCCC1", "activity change, negative = inhibition": "inactive: -8.11%"}, {"molecule": "Cc1cc(C)c(NC(=O)CSc2nc3c(c(=O)n2C)SC(C)C3)c(C)c1", "note": "(stereo not given)", "activity change, negative = inhibition": "inactive: 0.833%"}, {"molecule": "CN(C)c1nc(SCCOC(=O)c2ccccc2)nc(N(C)C)n1", "activity change, negative = inhibition": "inconclusive: 26.9%"}, {"molecule": "O=C(CSc1nc2ccccc2c(=O)n1C1CC1)NCc1ccccc1", "activity change, negative = inhibition": "inconclusive: 5.97%"}, {"molecule": "CCCOc1ccccc1-c1nc(SCCC(=O)O)n[nH]1", "Potency": "inconclusive: 25.1 µM [falling, single point]"}, {"molecule": "O=C(CCn1ccc2ccccc21)Nc1ccc(N2CCOCC2)cc1", "activity change, negative = inhibition": "inconclusive: -8.37%"}, {"molecule": "CCOC(=O)c1nn(-c2ccccc2)c(C(=O)OCC)c1N", "Potency": "inconclusive: 15.8 µM [rising, partial curve]"}, {"molecule": "COc1ccc(C)cc1NC(=O)CSc1nnnn1Cc1ccccc1", "Potency": "inconclusive: 5.01 µM [falling, single point]"}, {"molecule": "O=C1Nc2ccc(S(=O)(=O)N3CCCCCC3)c3cccc1c23", "Potency": "inconclusive: 15.8 µM [rising, single point]"}, {"molecule": "Cc1ccc(-n2ncc3c(=O)[nH]c(SCC(=O)N4CCOCC4)nc32)cc1", "activity change, negative = inhibition": "inactive: 18.7%"}, {"molecule": "Cc1cccc(OCC(=O)NCCN2CCOCC2)c1", "activity change, negative = inhibition": "inconclusive: 12.6%"}, {"molecule": "COc1cc(-c2nc(-c3ccncc3)no2)cc(OC)c1OC", "activity change, negative = inhibition": "inactive: 28%"}, {"molecule": "CCNc1c2c3c(cccc3n(C)c1=O)C(=O)c1ccccc1-2", "activity change, negative = inhibition": "inconclusive: -5.25% [fluorescent]"}, {"molecule": "Nc1ccc(Nc2ccccc2N)cc1", "activity change, negative = inhibition": "inconclusive: 9.54%"}, {"molecule": "Cc1ccc(C(=O)Nc2nc3ccccc3n2CCN2CCCC2)cc1", "activity change, negative = inhibition": "inactive: -6.8%"}, {"molecule": "CN1CCN(c2nc(-c3ccccc3)c3cc(Cl)ccc3n2)CC1", "Potency": "inconclusive: 3.98 µM [rising, full curve]"}, {"molecule": "Cc1nn(CC(O)Cn2c3c(c4ccccc42)CCN(C)C3=O)c(C)c1Br", "note": "(stereo not given)", "activity change, negative = inhibition": "inconclusive: -29.2%"}, {"molecule": "OC[C@@H]1O[C@@H](O)[C@H](N=Cc2ccc3c(c2)OCO3)[C@@H](O)[C@@H]1O", "activity change, negative = inhibition": "inactive: -0.497% [at 7.6 µM]"}, {"molecule": "O=C(NCc1ccc2c(c1)OCO2)c1cc2c(s1)CSC2", "activity change, negative = inhibition": "inactive: 12.9%"}, {"molecule": "CCc1c(C)sc(NC(=O)c2cc(C)on2)c1C#N", "activity change, negative = inhibition": "inactive: 7.39%"}, {"molecule": "CCOC(=O)c1sc(NCc2ccco2)c(-c2nc3ccccc3s2)c1N", "activity change, negative = inhibition": "inconclusive: -26.6%"}, {"molecule": "Cn1c(=O)c2c(nc(Br)n2CC(=O)C23CC4CC(CC(C4)C2)C3)n(C)c1=O", "activity change, negative = inhibition": "inconclusive: 16%"}, {"molecule": "O=C(c1ccncc1)N1CCC2(CCCN(c3ncccn3)C2)CC1", "activity change, negative = inhibition": "inconclusive: 6.55%"}, {"molecule": "CCN1CCN(c2ncc(C(=O)Nc3ccccc3C(=O)OC)c3ccccc23)CC1", "activity change, negative = inhibition": "inconclusive: 20.2%"}, {"molecule": "Cc1c(Cc2ccccc2)sc(N)c1C(N)=O", "activity change, negative = inhibition": "inactive: -7.82%"}, {"molecule": "CCCn1c(CN2CCCCC2CC)nc2c1c(=O)n(C)c(=O)n2C", "note": "(stereo not given)", "activity change, negative = inhibition": "inconclusive: 24.6%"}, {"molecule": "O=C(O)CCC(=O)OCC1CCCO1", "note": "(stereo not given)", "activity change, negative = inhibition": "inactive: -3.95%"}, {"molecule": "CCn1cc(C(=O)OCC(=O)OC2CC(C)CCC2C(C)C)c(=O)c2ccc(C)nc21", "note": "(stereo not given)", "Potency": "inconclusive: 20 µM [rising, single point]"}]}]}
